Measurements taken from PMC10641171.
These are yes or no findings as the source states them, for the method shown. For some of these results: In cells and extracts the contact can be indirect. Some binding calls cover weakened binding; strength is not graded here. For some of these results: Where a sequence is shown, tags or fusion partners need not be part of it.

Amino acid sequences for entries named in this document (tags omitted).
UniProt O15527: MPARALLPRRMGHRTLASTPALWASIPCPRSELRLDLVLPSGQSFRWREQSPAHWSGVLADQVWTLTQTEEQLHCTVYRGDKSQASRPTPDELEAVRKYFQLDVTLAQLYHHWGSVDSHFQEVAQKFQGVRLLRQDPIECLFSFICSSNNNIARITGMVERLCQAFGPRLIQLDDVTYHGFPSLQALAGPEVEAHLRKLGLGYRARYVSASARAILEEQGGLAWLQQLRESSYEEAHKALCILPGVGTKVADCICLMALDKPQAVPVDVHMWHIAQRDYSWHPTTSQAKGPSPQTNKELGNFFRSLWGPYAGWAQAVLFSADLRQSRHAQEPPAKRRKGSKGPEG
UniProt Q04206: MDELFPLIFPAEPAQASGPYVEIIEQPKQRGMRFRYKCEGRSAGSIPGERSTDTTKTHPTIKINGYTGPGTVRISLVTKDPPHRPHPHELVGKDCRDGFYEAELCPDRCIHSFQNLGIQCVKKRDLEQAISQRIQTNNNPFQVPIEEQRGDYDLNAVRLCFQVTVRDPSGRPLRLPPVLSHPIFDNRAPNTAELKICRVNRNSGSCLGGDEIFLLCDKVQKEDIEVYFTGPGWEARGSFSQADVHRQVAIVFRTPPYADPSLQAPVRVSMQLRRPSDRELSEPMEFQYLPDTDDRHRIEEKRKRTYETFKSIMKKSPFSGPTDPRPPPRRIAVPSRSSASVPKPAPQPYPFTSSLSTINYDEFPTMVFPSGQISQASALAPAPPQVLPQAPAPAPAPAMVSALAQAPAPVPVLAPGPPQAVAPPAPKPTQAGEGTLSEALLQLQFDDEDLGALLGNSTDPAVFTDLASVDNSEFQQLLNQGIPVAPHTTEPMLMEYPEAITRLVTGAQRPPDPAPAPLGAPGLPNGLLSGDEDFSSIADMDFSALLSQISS

Columns and labels:
Flag-MSK1 = Flag-MSK1 (UniProt O75582); assay: co-IP; HEK293 cells expressing Flag-MSK1 or Flag-PKAc, TNFα 1 h; whole-cell extracts, Flag beads; Western blot of endogenous OGG1 and RelA/p65
Recombinant His-OGG1 = Recombinant His-OGG1 (UniProt O15527); assay: pull-down; reverse pull-down: His-OGG1 used to pull down GST-MSK1 and its mutants (Fig. S5B); both purified
GST-MSK1 330-803 = biological target: T1, GST-MSK1 330-803 (UniProt O75582); assay: pull-down; GST pull-down: His-OGG1 (increasing amounts) incubated with GST, GST-MSK1, GST-MSK1 truncations or GST-PKAc on GST-tag resin; pulled-down OGG1 detected by Western blot; both purified
T1 sequence: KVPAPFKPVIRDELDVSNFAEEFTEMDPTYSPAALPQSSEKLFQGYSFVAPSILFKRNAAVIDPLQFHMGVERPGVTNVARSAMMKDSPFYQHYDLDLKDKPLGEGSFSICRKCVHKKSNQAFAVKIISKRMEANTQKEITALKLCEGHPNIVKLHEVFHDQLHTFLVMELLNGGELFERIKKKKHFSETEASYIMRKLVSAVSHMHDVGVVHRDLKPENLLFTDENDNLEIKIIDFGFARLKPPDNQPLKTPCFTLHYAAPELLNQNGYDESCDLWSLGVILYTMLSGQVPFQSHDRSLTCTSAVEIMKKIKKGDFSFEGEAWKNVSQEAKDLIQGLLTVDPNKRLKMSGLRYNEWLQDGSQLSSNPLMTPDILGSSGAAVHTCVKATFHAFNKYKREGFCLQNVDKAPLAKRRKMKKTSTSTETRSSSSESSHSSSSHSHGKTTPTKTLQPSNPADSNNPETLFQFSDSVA

GST-MSK1 1-725 = GST-MSK1 1-725 (UniProt O75582); assay: as above
GST-MSK1 1-330 = GST-MSK1 1-330 (UniProt O75582); assay: as above
GST-MSK1 (full length) = GST-MSK1 (full length) (UniProt O75582); assay: as above
GST-MSK1 1-426 = GST-MSK1 1-426 (UniProt O75582); assay: as above
[1] = biological target: YFP-OGG1 (8-oxoguanine DNA glycosylase 1) (UniProt O15527); assay: co-IP; HEK293 cells expressing YFP-OGG1 (wt, K249Q or F319A), mock or TNFα 20 ng/ml 1 h, with or without 1 h pretreatment with NAC, TH5487 or TH2840; whole-cell extracts (50 mM Tris-HCl pH 7.5, 150 mM NaCl, 1% Nonidet P-40), GFP beads 3 h at 4 °C; Western blot of endogenous proteins

“8-oxoguanine DNA glycosylase 1 (OGG1), endogenous (from UniProt O15527 1-345) (enzyme)” was tested, and the binding (Flag-MSK1) was “binds”.

In the case of “GST-MSK1 1-330 (from UniProt O75582 1-330) (domain or fragment)”, the binding (Recombinant His-OGG1) is reported as “binds”.

For “GST-MSK1 1-426 (from UniProt O75582 1-426) (domain or fragment)”, the binding (Recombinant His-OGG1) was “binds”.

For “GST-MSK1 1-725 (from UniProt O75582 1-725) (domain or fragment)”, the binding (Recombinant His-OGG1) was “binds”.

With “Recombinant His-OGG1 (from UniProt O15527 1-345) (enzyme)” the binding (GST-MSK1 330-803) was “no binding”, the binding (GST-MSK1 1-725) was “binds” and the binding (GST-MSK1 1-330) was “binds”. The binding (GST-MSK1 (full length)) was “binds” and the binding (GST-MSK1 1-426) was “binds”.

With “RelA/p65, endogenous (from UniProt Q04206 1-551)” the binding [1] was “binds”.
